Measurements published in PubChem BioAssay AID504332 (National Center for Advancing Translational Sciences (NCATS), 2011).
About 31,000 (8.9%) of roughly 350,000 compounds were called active. The inconclusive results got no clear call from the source; some entries with a clear call stand among them for comparison. Calls come from the whole dose curve; as a rule, active = well fitted inhibition curve with a large enough effect; inconclusive = small, poorly fitted or top-dose-only effect; inactive = no such curve, though single readings can be large or run the other way. A potency beside an inconclusive call is a rough fit, not a confirmed value.
% is set by controls: 0 for no effect and ±100 for the full control effect; potency is the fitted concentration of half-maximal effect; tags give direction and shape of the fitted curve.
Note: nearly all actives have a fitted effect of over 75% in size.

Each compound was assayed against Histone-lysine N-methyltransferase EHMT2 (Homo sapiens) (UniProt Q96KQ7) (assay: qHTS Assay for Inhibitors of Histone Lysine Methyltransferase G9a). Settings: G9a H3K9 monomethylation, AlphaScreen, 2 h; activity, negative = inhibition: at 59 µM (top of the series) unless noted.
Sequence of UniProt Q96KQ7 (Q96KQ7 whole entry, looked up): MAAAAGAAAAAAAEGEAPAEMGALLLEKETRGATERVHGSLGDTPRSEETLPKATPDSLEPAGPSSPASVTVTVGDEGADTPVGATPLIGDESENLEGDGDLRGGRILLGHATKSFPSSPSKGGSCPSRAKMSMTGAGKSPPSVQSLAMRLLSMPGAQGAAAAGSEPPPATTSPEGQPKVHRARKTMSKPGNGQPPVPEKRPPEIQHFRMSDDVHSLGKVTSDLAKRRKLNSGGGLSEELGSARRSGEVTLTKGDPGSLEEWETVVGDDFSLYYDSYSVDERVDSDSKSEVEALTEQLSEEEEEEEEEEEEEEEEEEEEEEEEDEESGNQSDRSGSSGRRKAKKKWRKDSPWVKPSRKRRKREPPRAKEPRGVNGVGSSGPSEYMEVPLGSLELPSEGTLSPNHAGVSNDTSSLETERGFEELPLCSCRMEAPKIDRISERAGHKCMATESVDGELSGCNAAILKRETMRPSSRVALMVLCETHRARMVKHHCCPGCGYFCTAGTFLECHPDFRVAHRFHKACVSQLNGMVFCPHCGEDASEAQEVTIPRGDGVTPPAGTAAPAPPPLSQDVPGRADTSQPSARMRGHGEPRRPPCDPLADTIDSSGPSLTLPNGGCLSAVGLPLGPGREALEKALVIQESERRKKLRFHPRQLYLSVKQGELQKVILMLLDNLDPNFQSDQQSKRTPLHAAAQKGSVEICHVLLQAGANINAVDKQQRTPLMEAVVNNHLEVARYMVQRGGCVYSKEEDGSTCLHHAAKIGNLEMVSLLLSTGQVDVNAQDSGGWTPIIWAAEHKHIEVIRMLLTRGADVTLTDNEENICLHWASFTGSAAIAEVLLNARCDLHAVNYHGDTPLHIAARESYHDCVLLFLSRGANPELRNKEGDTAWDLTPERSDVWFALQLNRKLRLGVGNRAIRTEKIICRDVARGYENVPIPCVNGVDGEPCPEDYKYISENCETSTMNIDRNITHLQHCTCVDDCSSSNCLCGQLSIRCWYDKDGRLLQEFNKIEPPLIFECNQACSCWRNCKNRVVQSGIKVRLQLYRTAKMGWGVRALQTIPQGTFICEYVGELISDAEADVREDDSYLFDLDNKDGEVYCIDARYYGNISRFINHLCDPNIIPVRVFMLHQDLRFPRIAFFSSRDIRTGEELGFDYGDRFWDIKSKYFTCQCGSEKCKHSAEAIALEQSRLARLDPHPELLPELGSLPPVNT
Summary of the method: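 AlphaScreen detection with an anti-monomethyl H3K9 antibody quantified product after a 2 h room-temperature reaction containing 500 nM biotinylated H3K9 peptide, 20 µM SAM and 20 nM enzyme, which had been preincubated 15 min with compound.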
In the case of Cc1cccc(NC(=O)Cn2cnc3c(oc4ccccc43)c2=O)c1C, the Potency is reported as inconclusive: 89.1 µM [inhibitor, partial curve, poor fit].
O=C(O)CCC(=O)Nc1ccccc1C(=O)NCCc1ccccc1 was tested, and the Potency was inconclusive: 1.12 µM [inhibitor, full curve].
In the case of CCOC(=O)[C@H]1[C@H]2COc3cc(OC)ccc3[C@@H]2N2C(=O)N(c3ccc(Br)cc3)C(=O)[C@@]12C, the Potency is reported as “inactive”.
O=C(N/N=C/c1ccc(OC(=O)c2ccco2)cc1)c1ccccn1 was tested, and the Potency was inconclusive: 2.24 µM [inhibitor, full curve].
In the case of COc1ccc(CCNC(=O)c2cc(-c3ccc(Cl)cc3)on2)cc1OC, the Potency is reported as “inactive”.
In the case of CNC(=O)CN1C(=O)NC(c2ccccc2)(c2ccccc2)C1=O, the Potency is reported as inconclusive: 89.1 µM [inhibitor, single point].
With Cc1cc(C(F)(F)F)nn1Cc1n[nH]c(=S)n1-c1ccc(F)cc1 the Potency was active: 10 µM.
In the case of COc1cccc(NC(=O)CCc2nc(-c3cc(OC)c(OC)c(OC)c3)no2)c1, the Potency is reported as “inactive”.
For O=C(O)COc1ccccc1/C=N/NC(=O)COc1ccc(-c2ccccc2)cc1, the Potency was inconclusive: 70.8 µM [inhibitor, partial curve].
In the case of O=C(NC1CCCCC1)c1cc(-c2cccs2)on1, the Potency is reported as inconclusive: 39.8 µM [inhibitor, partial curve, poor fit].
For O=C(CN1C2=NCCCN2c2ccccc21)c1cccs1, the Potency was “inactive”.
For COc1ccc(S(=O)(=O)N2CCC(C(=O)N3CCc4ccccc4C3)CC2)cc1OC, the Potency was “inactive”.
For CCc1ccccc1NC(=O)Nc1cc(F)ccc1F, the Potency was inconclusive: 44.7 µM [inhibitor, partial curve, poor fit].
With Cc1ccc(CN2CCc3nc(N4CCN(C)CC4)ncc3C2)cc1 the Potency was inconclusive: 28.2 µM [inhibitor, single point].
For COCCn1c(SCC(=O)Nc2sccc2C(N)=O)nc2cc(Cl)ccc2c1=O, the Potency was active: 44.7 µM.
CCC(=O)OCC(=O)C1(OC(=O)CC)C(C)CC2C3CCC4=CC(=O)C=CC4(C)C3(Cl)C(O)CC21C (stereo not given) was tested, and the activity, negative = inhibition was inactive: -14.4% [at 2.33 µM].
Cc1c(C(=O)N2CCCC(C)C2)sc2ncnc(N3CCCCC3C)c12 (stereo not given) was tested, and the Potency was “inactive”.
COc1ccc(C(=O)CSc2nncn2C)cc1 was tested, and the Potency was inconclusive: 31.6 µM [inhibitor, single point].
In the case of COc1ccc(C(=O)N2CCC(c3ccncc3)CC2)cc1OC, the Potency is reported as “inactive”.
CCC(C)N(C(=O)Cn1nc(C)c([N+](=O)[O-])c1C)C1CCS(=O)(=O)C1 (stereo not given) was tested, and the Potency was “inactive”.
In the case of O=[N+]([O-])c1ccc(N2CCCC2)nc1N1CCCC1, the Potency is reported as inconclusive: 39.8 µM [inhibitor, partial curve].
Cn1c2ccccc2c2cc(C(=O)OCC(=O)N3CC(=O)Nc4ccccc43)sc21 was tested, and the Potency was active: 50.1 µM.
With COc1ccc(C(=O)n2nc(-c3ccco3)nc2N)cc1 the Potency was active: 17.8 µM.
In the case of Cc1ccccc1NC(=S)NCCC(c1ccccc1)c1ccccc1, the Potency is reported as “inactive”.
O=C1NNC(=O)C1c1ccccc1 was tested, and the Potency was inconclusive: 56.2 µM [inhibitor, single point].
For COC(=O)c1ccc(OC)c(CN2CCCN(Cc3ccc(C)cc3)S2(=O)=O)c1, the Potency was “inactive”.
For CC1=C(C(=O)Nc2ccc(F)cc2)C(c2ccncc2)C2=C(CCCC2=O)N1 (stereo not given), the Potency was “inactive”.
Cc1nc(C)c(C(=O)N(c2ccccc2F)C(C(=O)NCC2CCCO2)c2ccccc2)s1 (stereo not given) was tested, and the activity, negative = inhibition was inactive: 1.32% [at 12.7 µM].
With Cc1ccc(/C=C/C(=O)O)cc1S(=O)(=O)Nc1ccccc1C(=O)O the Potency was inconclusive: 50.1 µM [inhibitor, partial curve].
Cc1ccc(C2CC(=O)Nc3c2ccc2ccccc32)cc1[N+](=O)[O-] (stereo not given) was tested, and the Potency was inconclusive: 31.6 µM [inhibitor, single point].
COc1ccc2sc(NC(=O)c3ccco3)nc2c1 was tested, and the Potency was active: 7.08 µM.
For Cn1nccc1NC(=O)NC(=O)c1c(Cl)cccc1Cl, the Potency was “inactive”.
With CCC(=NCCN1CCNCC1)C1=C(O)CC(C)(C)CC1=O the Potency was inconclusive: 1.26 µM [inhibitor, single point].
In the case of O=C(CCCN1C(=O)c2ccccc2C1=O)Nc1ccccn1, the Potency is reported as “inactive”.
O=[N+]([O-])c1ccc(S(=O)(=O)Nc2cccc(-c3ccc(N4CCOCC4)nn3)c2)cc1 was tested, and the Potency was active: 25.1 µM.
In the case of CCOc1cc(N2CCOCC2)c(OCC)cc1NC(=O)CN1CCCC1, the Potency is reported as active: 3.16 µM.
With COc1ccc(OCC#CCN2CC(C)OC(C)C2)cc1 (stereo not given) the Potency was active: 14.1 µM.
With COc1ccc(-c2nn(C)c3sc(C(=O)N4CCOCC4)cc23)cc1OC the Potency was inconclusive: 2 µM [inhibitor, full curve, poor fit].
COc1cc(S(=O)(=O)N2CCCCC2)ccc1NC(=O)Cc1ccccc1 was tested, and the Potency was inconclusive: 56.2 µM [inhibitor, partial curve, poor fit].
With COc1ccc(Cl)cc1C(=O)NCC(c1ccc(N(C)C)cc1)N1CCOCC1 (stereo not given) the Potency was inconclusive: 25.1 µM [inhibitor, single point].
With CC(C(=O)NCC1CCCO1)c1ccc([N+](=O)[O-])cc1 (stereo not given) the Potency was inconclusive: 39.8 µM [inhibitor, single point].
Cc1oc2c(c1C(=O)Nc1ccc(Cl)cc1F)C1=NCCN1C=N2 was tested, and the Potency was “inactive”.
With CN1CCN(C(=O)c2ccc(NS(=O)(=O)c3cccc([N+](=O)[O-])c3)cc2)CC1 the Potency was active: 44.7 µM.
With CCOC(=O)N1CCN(C(=O)c2cccc(F)c2)CC1 the Potency was “inactive”.
In the case of O=C(CN(c1cccc(C(F)(F)F)c1)S(=O)(=O)c1ccccc1)N1CCOCC1, the Potency is reported as inconclusive: 7.94 µM [inhibitor, partial curve, poor fit].
CCNC(=S)N(Cc1ccco1)Cc1cc2cc3c(cc2[nH]c1=O)OCCO3 was tested, and the Potency was “inactive”.
For Cc1ccc(C(=O)Nc2nc3ccccc3[nH]2)cc1, the Potency was “inactive”.
CC(=O)N1CCN(S(=O)(=O)c2cccc(C(=O)Nc3ccccc3N3CCOCC3)c2)CC1 was tested, and the Potency was inconclusive: 35.5 µM [inhibitor, partial curve, poor fit].
In the case of Cc1cc(C)nc(SCc2csc(-c3ccccc3)n2)n1, the Potency is reported as “inactive”.
With COc1ccc2c(c1OC)C(=O)c1ccccc1C2=O the Potency was inconclusive: 25.1 µM [inhibitor, single point].
